Experimental data as given in PubChem BioAssay AID1345083 (National Center for Advancing Translational Sciences (NCATS), 2018).
Hit rate of the full screen: of about 94,000 compounds, about 6,200 (6.6%) were called active. This list was built around the results that the source calls inconclusive (neither active nor inactive); the mix of calls is not that of the screen. Calls come from the whole dose curve; as a rule, active = well fitted inhibition curve with a large enough effect; inconclusive = small, poorly fitted or top-dose-only effect; inactive = flat fitted curve, though single readings scatter. A potency beside an inconclusive call is a rough fit, not a confirmed value.

assay: Cytotoxic Profiling in HEK 293 Cell Line of Diverse Libraries Using Quantitative High-Throughput Screening; settings: HEK 293 viability, ATP luminescence (CellTiter-Glo), 48-72 h; series mostly up to 115 µM; note: nearly all actives have a fitted effect of over 60% in size
Procedure, shortened: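 HEK 293 cells seeded at 250 cells/well were exposed to compound for 48 or 72 hr at 37 degree Celsius. Viability taken as ATP content by CellTiter-Glo luminescence.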
Potency is the fitted concentration of half-maximal effect; tags give direction and shape of the fitted curve.

Row | Compound | Potency
1 | O=C(Cc1c[nH]c2ncc(-c3ccccc3Oc3ccccc3)cc12)N1CCOCC1 | active: 50.1 µM
2 | CN(C)CCNC(=O)c1n[nH]c2c1CN(C(=O)c1cccc(OC(F)(F)F)c1)CC2 | inactive
3 | CC(C)CCNC(=O)c1cc2n(n1)CC(c1ccc3c(c1)OCO3)OC2 (stereo unspecified) | inconclusive: 79.4 µM [inhibitor, partial curve, poor fit]
4 | O=C(c1nnc(COc2ccc3cnccc3c2)n1-c1ccccc1)N1CCC[C@@H]1c1cccc(F)c1 | inconclusive: 79.4 µM [inhibitor, partial curve]
5 | CCN1C(=O)C2CC3(CCN(C(=O)c4ccc(Cn5nc(C)cc5C)o4)CC3)CN2C1=O (stereo unspecified) | inactive
6 | C=CCN(C)C(=O)[C@@H](C)C1CC[C@@]2(C)Cc3sc(Nc4c(Cl)cccc4Cl)nc3[C@@H](C)[C@@H]2[C@H]1O (stereo partly specified) | inconclusive: 50.1 µM [inhibitor, partial curve, poor fit]
7 | N#Cc1cccc(C(=O)NC2CCN(c3cc(-c4ccccc4)[nH]n3)CC2)c1 | inconclusive: 50.1 µM [inhibitor, partial curve, poor fit]
8 | COCC(=O)N1CC(N2C(=O)c3c(c(C)nn3-c3ccccc3)C2C)C1 (stereo unspecified) | inactive
9 | Cc1cccc(OCCc2noc(C3CCCNC3)n2)c1 (stereo unspecified) | inconclusive: 79.4 µM [inhibitor, partial curve, poor fit]
10 | Cc1noc2c(N3CCOCC3)cc(-c3cccs3)nc12 | inconclusive: 22.4 µM [inhibitor, partial curve, poor fit]
11 | COc1cccc(C(=O)N2C(C(=O)NC3CC3)COC23CCN(C(=O)C2CC2)CC3)c1 (stereo unspecified) | inactive
12 | CCCCn1c(=O)c(C(=O)N2CCN(C(C)=O)CC2)nc2cccnc21 | inactive
13 | COc1cccc(CNC(=O)c2nc3cccnc3n(Cc3ccccc3)c2=O)c1 | inconclusive: 89.1 µM [inhibitor, single point]
14 | CCCN(CC1CC1)C(=O)CCC[C@H]1NC[C@@H]2C[C@H]1CN(Cc1ccccc1)C2 | inconclusive: 31.6 µM [inhibitor, full curve]
15 | CNC(=O)c1cccn2cncc12 | inactive
16 | Cc1cccc(CNC[C@H]2Cn3c(-c4ccc(Cl)cc4)cnc3CO2)n1 | inconclusive: 126 µM [inhibitor, single point]
17 | Cc1cccc(CC(=O)N2CCC[C@H]2c2nc(-c3ccccc3)no2)c1 | inconclusive: 89.1 µM [inhibitor, single point]
18 | Cn1cnc(S(=O)(=O)N2CCOc3ccc(CN4CCc5ccccc5C4)cc3C2)c1 | inactive
19 | COc1ccc(OCC2CN(CCc3ccccc3)S(=O)(=O)c3cccnc3O2)cc1 (stereo unspecified) | inconclusive: 35.5 µM [inhibitor, partial curve, poor fit]
20 | COc1ccccc1OCC(=O)c1ccc2c(c1)N(CCCC(=O)NCC1CC1)C(=O)CO2 | inconclusive: 79.4 µM [inhibitor, partial curve, poor fit]
21 | CCN1CCC(N2CCC(N3C(=O)C4(CCCCC4)C3c3ccncc3)CC2)CC1 (stereo unspecified) | inactive
22 | COCCNC(=O)C1COC2(CCN(C(=O)c3ccc(F)cc3)CC2)N1C(=O)c1ccc(F)cc1 (stereo unspecified) | inactive

Row | Compound | Potency
23 | O=C(NCc1ccccc1)c1ccccc1OC1CN(Cc2ccc(O)c(F)c2)C1 | inconclusive: 35.5 µM [inhibitor, partial curve, poor fit]
24 | COc1ccc(CC(=O)N2C[C@@H](CO)[C@@H]3Oc4ccc(Cl)cc4[C@@H]32)cc1 | inconclusive: 44.7 µM [inhibitor, partial curve, poor fit]
25 | NC1CCCN(Cc2cc(F)ccc2-n2cccn2)CC1 (stereo unspecified) | inconclusive: 89.1 µM [inhibitor, partial curve, poor fit]
26 | COc1ccc(C(=O)NC2CCN(Cc3cccc(-c4ccc(SC)cc4)c3)CC2)cc1 | inactive
27 | O=C(CC1CCCC1)NC1CCN(c2cnn(CC3CC3)c(=O)c2)CC1 | inconclusive: 89.1 µM [inhibitor, single point]
28 | O=C(C[C@@H]1CCNC[C@@H]1Cc1cc(CSc2ccccc2)on1)N1CCCCC1 | inconclusive: 100 µM [inhibitor, partial curve, poor fit]
29 | Cc1cccc(-c2nc3cc4c(cc3cc2CN2CCC[C@H]2C(N)=O)OCO4)c1 | inconclusive: 89.1 µM [inhibitor, single point]
30 | CCOc1ccccc1C(=O)N1CCC2(CC1)NC(=O)N(c1cccc(Cl)c1)N2 | active: 31.6 µM
31 | COc1ccc(-c2cc(C[C@@H]3CC[C@H](O)[C@@H](CN(Cc4ccccc4OC)Cc4ccccc4OC)O3)no2)cc1 | inconclusive: 50.1 µM [inhibitor, partial curve, poor fit]
32 | CC(NC(=O)c1ccc(C(C)(C)C)cc1)C(=O)N1CCN(c2ccccn2)CC1 (stereo unspecified) | inconclusive: 50.1 µM [inhibitor, partial curve, poor fit]
33 | COc1ccc(C(=O)N2CCCN(c3nnc4ccccn34)CC2)cc1F | inactive
34 | Cc1noc(C)c1C(=O)NCC(=O)N1CCCCCCNC(=O)CC1c1ccccc1 (stereo unspecified) | inactive
35 | O=C(c1ccccc1)N1Cc2[nH]cnc2C[C@H]1c1nc(-c2ccc(Cl)cc2)no1 | inconclusive: 100 µM [inhibitor, partial curve, poor fit]
36 | Cc1ccc(C2Cn3nnc(-c4noc(C5CCCCC5)n4)c3CO2)cc1 (stereo unspecified) | inactive
37 | CN1C[C@@H](NC(=O)c2cnccn2)C[C@H]1c1nc(-c2ccc3c(c2)OCO3)no1 | inactive
38 | Cc1ccc(CCN2CCCCC23Cc2ccccc2CN(C(=O)CCCC(=O)O)C3)cc1 (stereo unspecified) | inactive
39 | CCOc1ccc2c(n1)CCN(C(=O)C1CCCC1)C2 | inactive
40 | CC(=O)Nc1ccc(CN2CC3(C2)C(=O)Nc2ccccc23)cc1 | inconclusive: 112 µM [inhibitor, single point]
41 | Cc1cccc(OCC(=O)N2CCC3(CC2)NC(=O)N(c2cccc(F)c2)N3)c1 | inconclusive: 70.8 µM [inhibitor, single point]
42 | COc1ccc(-c2ccc3ncn(Cc4ccccc4)c(=O)c3n2)cc1OC | inactive
43 | CS(=O)(=O)N1CCC(C2CCN(C(=O)Cc3cccc(F)c3)C2)CC1 (stereo unspecified) | inactive
44 | CCc1ccc(NC(=O)c2cc3n(n2)CC(c2ccc4c(c2)OCO4)OC3)cc1 (stereo unspecified) | active: 31.6 µM

Row | Compound | Potency
45 | C[C@H]1[C@@H]2[C@@H](O)C([C@H](C)C(=O)NC3CC3)CC[C@@]2(C)CC[C@@H]1NC(=O)C1CCCCC1 (stereo partly specified) | inactive
46 | O=C(NCCOc1ccccc1)c1nc2c(o1)CCN(Cc1cccc(F)c1)CC2 | inconclusive: 112 µM [inhibitor, partial curve, poor fit]
47 | O=C(CN1CCn2nc(CO)cc2C1)N1CCOc2ccccc21 | inactive
48 | CO[C@H]1[C@H](NC(=O)c2noc3c2CCCC3)c2ccccc2C12CCNCC2 | inconclusive: 79.4 µM [inhibitor, single point]
49 | CC(C)c1nc(CNC(=O)c2ccc(OC3CCN(C(=O)C4CC4)CC3)cc2)cs1 | inconclusive: 22.4 µM [inhibitor, full curve, poor fit]
50 | O=C(OCc1ccccc1)N1CCCC2(C1)C(=NC1CCCC1)NC(=O)N2c1cc(F)cc(F)c1 (stereo unspecified) | inconclusive: 35.5 µM [inhibitor, partial curve, poor fit]
51 | CC(=O)N1CCN(C(=O)c2ccc3oc(-c4ccncc4Cl)nc3c2)CC1 | inactive
52 | O=C(c1cccc(-c2cccc(-n3cnnc3)c2)c1)N1CCCCC1 | inconclusive: 89.1 µM [inhibitor, single point]
53 | Cc1oc2c(c1C(=O)N1CCCCCC1)CN(Cc1cccc(F)c1)CC2 | inconclusive: 89.1 µM [inhibitor, single point]
54 | COc1ccc(-c2ccc(C(=O)N3CCC(C#N)CC3)cc2)nn1 | inconclusive: 126 µM [inhibitor, single point]
55 | CC(C)(C)OC(=O)NCCCC(=O)NCc1c[nH]c2ncccc12 | inconclusive: 79.4 µM [inhibitor, single point]
56 | COc1ncccc1CN1CCC2(CC1)COCCN2C(=O)OCc1ccccc1 | inconclusive: 100 µM [inhibitor, partial curve]
57 | COc1ccccc1-c1[nH]nc2ncc(-c3c(C)noc3C)nc12 | active: 89.1 µM
58 | COC1CCN(CC2CCCCCN2C(=O)c2ccccc2)CC1 (stereo unspecified) | inactive
59 | CCOc1ccccc1NC(=O)N1CCCC(Cn2c(C3CC3)nc3cccnc32)C1 (stereo unspecified) | inactive
60 | CC1CCN(C(=O)c2ccc3c(c2)C(O)CCCCCN3C)CC1 (stereo unspecified) | inconclusive: 56.2 µM [inhibitor, partial curve, poor fit]
61 | Cc1cccc2[nH]c(CNC(=O)C3CCC(=O)N(CC4CCCCC4)C3)nc12 (stereo unspecified) | inconclusive: 39.8 µM [inhibitor, single point]
62 | Cc1ccc(NC(=O)C2CN(c3ccnc4ccnn34)C2)cc1 | inconclusive: 12.6 µM [inhibitor, full curve, poor fit]
63 | O=C(Nc1ccc2c(N3CCCCC3)ncnc2c1)c1ccc(F)cc1 | inconclusive: 31.6 µM [inhibitor, partial curve, poor fit]
64 | CC(C)(C)C(=O)NCCNC(=O)c1cccc(-c2ccc(C(F)(F)F)cc2)c1 | active: 25.1 µM
65 | O=C(C1CCOCC1)N1CC(Oc2ccc(-c3nc(-c4ccccc4)no3)cc2)C1 | inconclusive: 8.91 µM [inhibitor, full curve, poor fit]
66 | COc1ccc(-c2c(C(=O)Nc3ccc(C)cc3)nc3sccn23)cc1 | inconclusive: 15.8 µM [inhibitor, full curve, poor fit]
